Measured values taken from publication PMC4336329 (PLoS ONE, 2015).
Hit rate of the full screen: of about 310,000 compounds, about 14,000 (4.5%) showed an effect of 50% or more. The effect is printed as a negative number. The list shows a part of the results.

Target: human ether-à-go-go-related gene (hERG) potassium channel (human, UniProt Q12809)
Assay: primary screen, population patch clamp on CHO cells stably expressing hERG
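Note: peak tail current of the secondary pulse compared with the same well before compound.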

human ether-à-go-go-related gene (hERG) potassium channel, sequence (Q12809 whole entry, looked up): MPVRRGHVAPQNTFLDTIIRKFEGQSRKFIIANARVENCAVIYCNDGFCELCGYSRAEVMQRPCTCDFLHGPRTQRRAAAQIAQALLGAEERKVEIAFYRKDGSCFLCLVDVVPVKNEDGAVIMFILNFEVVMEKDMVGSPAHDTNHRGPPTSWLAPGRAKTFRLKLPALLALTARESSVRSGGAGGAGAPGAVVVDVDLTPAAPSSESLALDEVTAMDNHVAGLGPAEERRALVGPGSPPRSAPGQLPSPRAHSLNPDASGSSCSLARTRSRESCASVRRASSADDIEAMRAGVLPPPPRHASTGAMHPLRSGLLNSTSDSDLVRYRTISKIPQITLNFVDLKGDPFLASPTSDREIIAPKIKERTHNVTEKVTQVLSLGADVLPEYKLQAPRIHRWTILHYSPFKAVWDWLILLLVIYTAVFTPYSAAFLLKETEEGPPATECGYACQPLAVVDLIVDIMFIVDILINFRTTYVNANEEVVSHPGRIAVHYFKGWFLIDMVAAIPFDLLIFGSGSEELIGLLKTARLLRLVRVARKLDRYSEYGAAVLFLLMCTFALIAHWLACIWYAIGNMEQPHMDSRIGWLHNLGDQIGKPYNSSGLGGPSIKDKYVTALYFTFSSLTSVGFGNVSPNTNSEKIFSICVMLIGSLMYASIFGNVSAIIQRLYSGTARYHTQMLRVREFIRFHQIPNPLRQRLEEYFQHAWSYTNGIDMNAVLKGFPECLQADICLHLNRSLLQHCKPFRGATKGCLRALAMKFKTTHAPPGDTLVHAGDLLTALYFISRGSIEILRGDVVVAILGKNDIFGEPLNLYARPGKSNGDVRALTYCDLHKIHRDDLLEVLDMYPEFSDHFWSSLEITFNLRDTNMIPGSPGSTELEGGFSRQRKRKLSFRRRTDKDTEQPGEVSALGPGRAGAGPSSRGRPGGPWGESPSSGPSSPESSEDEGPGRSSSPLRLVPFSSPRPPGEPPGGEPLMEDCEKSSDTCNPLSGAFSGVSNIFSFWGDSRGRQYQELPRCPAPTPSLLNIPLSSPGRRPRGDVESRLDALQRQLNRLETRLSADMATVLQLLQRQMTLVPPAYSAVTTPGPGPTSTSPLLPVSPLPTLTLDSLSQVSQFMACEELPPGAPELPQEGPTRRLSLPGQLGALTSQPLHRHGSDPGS

Compound | hERG current change (%, negative = inhibition) at 10uM
CCCc1cc(=O)[nH]c(SCC(=O)Nc2c(C)cccc2C)n1 | 6.31%
COc1ccc(C(C(=O)NC2CCCCC2)N(C(=O)c2ccccn2)c2cccnc2)cc1 (stereo not shown) | 22.4%
O=C(CCc1nnc(-c2ccc3c(c2)OCO3)o1)N(Cc1ccncc1)CC1CCCO1 (stereo not shown) | -7.66%
CCN(CC)CCCNC(=O)c1nn(-c2ccc(OC)cc2OC)c(=O)c2ccccc12 | -0.745%
O=C1N=C(N2CCOCC2)S/C1=C/c1cccs1 | -5.52%
Cc1ccccc1C1NC(=O)c2ccccc2O1 (stereo not shown) | 17.1%
COP(=O)(OC)c1nc(-c2cccc3ccccc23)oc1N1CCOCC1 | 2.16%
COc1ccc(N2CCN(Cc3nc4scc(-c5ccccc5)c4c(=O)[nH]3)CC2)cc1 | 7.98%
Cc1ccc(Sc2nc(-c3ccccc3)nnc2C(F)(F)F)cc1 | 11.7%
COc1ccc(C)cc1N(CC(=O)N1CCCCCC1)S(C)(=O)=O | 12.2%
CC1=NN(C(=O)c2c(Br)cnn2C)C(O)(C(F)(F)F)C1 (stereo not shown) | -24.6%
COc1ccc(C2c3c(oc4ccccc4c3=O)C(=O)N2CCCN2CCOCC2)cc1 (stereo not shown) | -7.15%
CCOc1ccc(OCC(O)CN2CCc3ccccc3C2)cc1.Cl (stereo not shown) | -66.3%
CN(C)S(=O)(=O)c1cccc(NC(=O)C2Cc3ccccc3CN2C(=O)c2ccccc2)c1 (stereo not shown) | 4.2%
O=C(c1cc(COc2ccc3ncccc3c2)on1)N1CCC[C@H]1CO | 4.88%
COc1ccccc1Nc1nc(NCc2ccco2)nc(N)c1[N+](=O)[O-] | 14.9%
CC1CCCCC1NC(=S)Nc1ccc(SC(F)F)cc1 (stereo not shown) | -4.24%
COc1ccc2[nH]cc(CCNS(=O)(=O)c3ccc(F)cc3)c2c1 | 4.05%
Cc1sc2nc(COC(=O)C(NC(=O)c3ccc(Cl)cc3Cl)C(C)C)[nH]c(=O)c2c1C (stereo not shown) | -8.15%
O=C(NN=C1C2CC3CC(C2)CC1C3)c1cc(Cl)ccc1O | -9.2%
COc1ccc(CCNC(=O)C2CCCN(S(=O)(=O)c3ccc(F)cc3)C2)cc1 (stereo not shown) | -0.344%
O=C(CCC1CCCN(C(=O)CC2=CCCCC2)C1)N1CCN(c2ccccn2)CC1 (stereo not shown) | 5.98%

Compound | hERG current change (%, negative = inhibition) at 10uM
COc1ccc(N2C(=O)C3CC(C)=C(C)CC3C2=O)c(OC)c1 (stereo not shown) | 10.9%
CCOC(=O)C1CCCN(C(=O)c2ccc(NC(=O)CC3SC(N4CCCC4)=NC3=O)cc2)C1 (stereo not shown) | 12.9%
O=C(CCN1C(=O)/C(=C/c2ccc(F)cc2)SC1=S)Nc1cccnc1 | 3.56%
COc1ccc(-n2c(Cc3cccn3C)nnc2SCC(=O)Nc2ccc(C(C)=O)cc2)cc1 | -4.7%
Cc1cc2c(cc1C)C(c1ccccc1F)CC(=O)N2 (stereo not shown) | 11.4%
O=C(/C=C/c1cccs1)Nc1ccc([N+](=O)[O-])cc1 | 1.54%
COc1ccc(Br)cc1C(=O)NC(=S)Nc1ccc(Cl)c(C(=O)O)c1 | 34%
COCCNC(=O)c1ccccc1NC(=O)c1ccccc1SC | 1.11%
CCOC(=O)N1CCN(C(=O)CCSCCc2ccncc2)CC1 | -14.3%
Cc1ccc(C)c2nc(N3CCCC3)c(C#N)cc12 | 7.81%
CC1(C)CC(=O)C2=C(C1)N(Cc1ccc(F)cc1)C(=O)C2(NC(=O)c1cccnc1)C(F)(F)F (stereo not shown) | -5.55%
Cc1ccc(S(=O)(=O)CC(=O)Nc2ccccn2)cc1 | 9.19%
Cc1cccc(N(Cc2cc(=O)[nH]c3ccccc23)C(=O)C(C)C)c1 | -6.76%
Nc1ccc(C(=O)O)cc1S(=O)(=O)O | 4.1%
Oc1c(Br)cc(Br)cc1C=Nc1ccc2c(c1)OCCO2 | 14.9%
Cc1nn(C)cc1CNC(=O)c1cnn2c(C(F)F)cc(C3CC3)nc12 | -21.3%
CC(C)NOC(=O)c1ccc(Cl)cc1 | -5.23%
Cn1cc(S(=O)(=O)CC(=O)N2CCCc3ccccc32)c2ccccc21 | -15.2%
COCc1cc(N2CCCC2)nc(-c2ccccc2)n1 | 1.91%
CCOc1ccccc1C1NC(=O)NC(C)=C1C(=O)OCc1ccco1 (stereo not shown) | -8.95%
O=C(Nc1ccccc1)O/N=C/c1ccccc1Cl | 11.2%
O=C1/C(=C/c2ccccc2)NC(=S)N1C(c1ccccc1)c1ccccc1 | 9.94%

Compound | hERG current change (%, negative = inhibition) at 10uM
Cn1cnnc1Sc1cc(N2CCNCC2)ccc1[N+](=O)[O-] | 7.66%
Cc1nc(SCc2cccnc2)[nH]c(=O)c1C | 20.9%
COc1ccc(Oc2ccc(NC(=O)c3ccccc3C)cc2)cc1 | 1.33%
COC(=O)C1C(=O)N2CCCSC2=C(C#N)C1c1cccs1 (stereo not shown) | 1.49%
CC1(C)CC(=O)C2=C(C1)N(CCN1CCOCC1)C1=C(C(=O)CC(C)(C)C1)C2c1cccc(Cl)c1 | -54%
O=C(Nc1ccnn1C1CCN(C2CCCC2)CC1)c1ccccc1 | 1.61%
COC(=O)c1ccc(-c2nc(CN3CCN(Cc4cccc(C)c4)CC3)c(C)o2)cc1 | -25.3%
CCC(C)(C)C1CCc2[nH]nc(C(=O)NC3CCCC3)c2C1 (stereo not shown) | 2.45%
CC(=O)c1c(C)[nH]c(C(=O)Nc2cc(F)ccc2C)c1C | 18.1%
O=C(Nc1ccccc1OC(F)F)c1ccc(S(=O)(=O)N2CCCC2)cc1 | -3.72%
Cc1nc2ccccc2c(=O)n1NS(C)(=O)=O | 14.8%
Cc1ccc(C(=O)C(NC(=O)c2ccco2)N2CCOCC2)cc1 (stereo not shown) | 1.86%
O=S(=O)(NC1=NCCC1)c1cccc(NS(=O)(=O)c2ccc(OC(F)(F)F)cc2)c1 | 1.71%
CCc1ccc(NC(=O)CSc2nc(=O)n(CCN(C)C)c3c2CCCC3)cc1 | -24.2%
O=C(NCC(c1cccs1)N1CCOCC1)c1ccccc1NS(=O)(=O)c1ccc(Br)cc1 (stereo not shown) | -38.4%
Nc1nnc(-c2ccccc2)c(-c2ccccc2)n1 | -10.7%
O=C(N/N=C/c1ccc2c(c1)OCO2)C(=O)Nc1ccc2ccccc2c1 | 4.93%
COc1ccc(CNC(=O)Nc2ccc(C)c(C)c2)cc1 | 12.1%
COc1cc(Cl)c(C)cc1NC(=O)c1cc(S(=O)(=O)N(C)C)ccc1N1CCCC1 | -51.8%
CCOc1cc(CNCc2ccncc2)cc(Cl)c1OC.Cl | 24.6%
Clc1ccc(-c2cnn3c(-c4ccncc4)ccnc23)cc1 | 5.43%
CCC(C)c1c(O)nc(SCC(=O)Nc2ccccc2)[nH]c1=O (stereo not shown) | 13.7%

Compound | hERG current change (%, negative = inhibition) at 10uM
CCN1Cc2c(/C=C/c3ccccc3)nc3ccc(OC)cc3c2N(c2cccc(Cl)c2)C1 | -12.5%
CCc1nc2c(c(=O)[nH]1)C1(CCCC1)Cc1ccccc1-2 | 10%
O=C(O)CCC(=O)OCc1c(-c2ccccc2)ncc2ccccc12 | 9.09%
O=C(CN1CCC(O)(c2cccc(F)c2)CC1)NCCc1c[nH]c2ccccc12 | -27.6%
CCOc1ccc(CCNC(=O)COC(=O)c2cccnc2SC)cc1OCC | -11.7%
CN(CC(=O)Nc1ccc(N2CCOCC2)cc1)C(=O)CCCOc1ccc(Cl)cc1Cl | -28.2%
CC(=O)c1sc(NC(=O)c2cccnc2Cl)nc1C | -17.9%
COc1ccc(C(=O)COC(=O)CCCn2c(=O)oc3ccccc32)cc1 | -43.6%
O=C(CCN1CCCCO1)N1CCCC(Nc2ccc(F)c(F)c2)C1 (stereo not shown) | -0.135%
CCOC(=O)C1CCCCN1C(=O)c1oc2c(Cl)cc(C)cc2c1C (stereo not shown) | 19.8%
O=C(Nc1nccs1)c1ccc(COc2ccc(F)cc2)o1 | 8.63%
Cc1cc(Br)ccc1NC(=O)CNC(=O)Cc1ccc(S(=O)(=O)N2CCOCC2)s1 | -33.8%
CCC(=NCCCN(C)C)c1c(O)n(-c2ccc(OC)cc2)c(=O)[nH]c1=O | 1.59%
N#Cc1cnc(SCC(=O)c2ccccc2)nc1N | -8%
CC(C)NC[C@H](O)COc1ccc(CC(N)=O)cc1 | 12.8%
COc1ccc(-c2nc(N)ncc2-c2ccc(OC)c(OC)c2)c(O)c1 | -20%
O=C(CS(=O)(=O)c1cn(CC(=O)N2CCOCC2)c2ccccc12)NCc1ccccc1 | 7.51%
COc1ccc(-n2c(=S)[nH]c3cc(C(=O)NCCCN4CCOCC4)ccc3c2=O)c(OC)c1.Cl | 11.7%
COC(=O)C1CCN(C2=C(NS(=O)(=O)c3ccc(Cl)cc3)C(=O)c3ccccc3C2=O)CC1 | -25.1%
CCc1cccc(CC)c1NC(=O)COC(=O)c1ccc(F)c(S(=O)(=O)N(CC)CC)c1 | -17%
Cn1c(=O)c2ccccc2n(Cc2cccc(F)c2)c1=O | -1.34%
CCn1ncc(CN2CCCC(C(=O)c3cccc(OC(C)C)c3)C2)c1C (stereo not shown) | -19.8%
